# Laboratory results reported in PubChem BioAssay AID1454 (National Center for Advancing Translational Sciences (NCATS), 2008).
# Out of some 130,000 compounds screened, about 550 (0.42%) were called active. The shares of active, inactive and inconclusive entries below differ from those in the screen. Calls follow the shape of the dose curve; as a rule, active = well fitted inhibition curve with a large enough effect; inconclusive = small, poorly fitted or top-dose-only effect, or effect the other way; inactive = flat fitted curve, though single readings scatter. No potency is given beside an inconclusive call; the fits are too rough.
# Test: qHTS Assay for Inhibitors of the ERK Signaling Pathway using a Homogeneous Screening Assay; Stimulation with EGF; also: nearly all actives have a fitted effect of over 55% in size
# Conditions: HEK293-V1b, EGF-stimulated phospho-ERK AlphaScreen
# In short: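 In this qHTS, HEK293 cells with stable type-1 vasopressin (V1b) receptor were exposed to compound at 37C for 30 min, stimulated 5 min with EGF at 25 nM, lysed, and probed for phospho-ERK by AlphaScreen.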
# Potency is read from the fitted curve at half-maximal effect; tags tell the direction and shape of the fitted curve.
row,SMILES,Potency
1,O=C(CNC(=O)C(c1ccccc1)c1ccccc1)N/N=C/c1ccc(O)cc1O,inactive
2,CCCC(=O)Nc1c2c(nc3ccccc13)N(c1ccccc1)CC2,inactive
3,O=c1ccc(N=Nc2ccccc2)ccc1O,"inconclusive [inhibitor, single point]"
4,CCOc1ccc(CCNC(=O)C2=C(C)C(=O)OC23CCC(C)CC3)cc1 (stereo not drawn),"inconclusive [inhibitor, partial curve]"
5,Nc1c(CO)nnn1-c1ccccc1,inactive
6,CCOC(=O)CCCNC(=O)CSc1nc2ccc(OCC)cc2[nH]1,"inconclusive [inhibitor, single point]"
7,Cc1nc(N2CCCCC2)sc1C(=O)c1ccc(Cl)c([N+](=O)[O-])c1,"inconclusive [inhibitor, partial curve]"
8,CC1=CSC2=NC(=O)/C(=C\c3cccn3-c3ccc([N+](=O)[O-])cc3)C(=N)N12,"inconclusive [activator, single point]"
9,CCCC(=NCCc1c(C)[nH]c2ccccc12)C1=C(O)CC(c2ccccc2)CC1=O (stereo not drawn),inactive
10,N#Cc1nc(-c2cccc3ccccc23)oc1NCC1CCCO1 (stereo not drawn),"inconclusive [inhibitor, single point]"
11,O=C(Nc1ccc(N2CCCC2)c(Cl)c1)c1ccc([N+](=O)[O-])o1,"inconclusive [inhibitor, single point]"
12,CC(=O)Nc1ccc(S(=O)(=O)Nc2nc(-c3ccc(C(C)(C)C)cc3)cs2)cc1,inactive
13,COC(=O)[C@@H]1CC[C@H](C)[C@@H](c2ccc(C)cc2)N1C(=O)c1ccc(/C=N/OCC[C@@H]2C=C[C@H](OC(C)=O)[C@@H](COC(C)=O)O2)cc1,"inconclusive [inhibitor, partial curve]"
14,Cc1ccc(S(=O)(=O)Nc2cnc3ccccc3c2)cc1,inactive
15,N=c1oc2ccccc2cc1-c1nc(-c2ccc(Cl)cc2)cs1,"inconclusive [activator, full curve, poor fit]"
16,CCOc1ccc(/C=N/NC(=O)c2c(-c3ccccc3)noc2C)cc1,"inconclusive [inhibitor, single point]"
17,CCOC(=O)c1ccc(NC(=O)N2CCN(c3cccc(OC)c3)CC2)cc1,"inconclusive [inhibitor, single point]"
18,COc1ccc(CNC(=O)CN(c2ccc(OC)cc2)S(=O)(=O)c2c(C)nn(C)c2C)cc1,inactive
19,N#Cc1c(-c2ccccc2)nc(-c2ccncc2)[nH]c1=O,inactive
20,NC(=O)c1cc[n+](CC2=C(C(=O)[O-])N3C(=O)[C@@H](NC(=O)Cc4cccs4)[C@@H]3SC2)cc1,inactive
21,O=C(/C=C/c1ccccc1)c1ccc(NC2=NCCCS2)cc1,"inconclusive [inhibitor, single point]"
22,Cc1ccc(C(=O)NC(=S)Nc2ccc(N3CCOCC3)cc2)cc1C,"inconclusive [inhibitor, single point]"

row,SMILES,Potency
1,Cc1n[nH]c(=S)n1/N=C/c1cccc(OCc2ccccc2)c1,"inconclusive [inhibitor, partial curve]"
2,COc1ccc(C(=O)N2N=C(c3ccccc3)CC2(O)C(F)(F)F)cc1 (stereo not drawn),"inconclusive [inhibitor, single point]"
3,COc1cccc(/C=N/NC(=O)c2ccc(=O)n(C)c2)c1O,inactive
4,Cc1nc(NC(=O)c2ccccc2)sc1C1(C)CC(c2c(Cl)cccc2Cl)=NO1 (stereo not drawn),"inconclusive [inhibitor, single point]"
5,CCCCCCCCCCCCCCCC[n+]1ccc(/C=N/O)cc1,"inconclusive [inhibitor, single point]"
6,COc1cccc(/C=N/NC(=O)c2[nH]nc3c2CCc2ccccc2-3)c1O,"inconclusive [inhibitor, partial curve]"
7,Clc1cccc(/C(Cc2nc3ccccc3[nH]2)=N\Nc2ccccc2)c1,"inconclusive [inhibitor, single point]"
8,CCOC(=O)c1[nH]c2ccccc2c1NC(=O)c1ccc(S(=O)(=O)N2CCCC2)cc1,"inconclusive [inhibitor, partial curve, poor fit]"
9,O=C1c2cccc(Sc3ccccc3)c2C(=O)c2c(Sc3ccccc3)cccc21,active: 7.08 µM
10,COc1ccc(N2CCN(C(=O)c3cccnc3SCc3cccc(Br)c3)CC2)cc1,inactive
11,O=C(COc1cccc2ccccc12)N/N=C/c1ccccc1OCc1ccc(C(=O)O)cc1,"inconclusive [inhibitor, single point]"
12,CC(c1ccccc1)N1CCc2[nH]c(=S)[nH]c(=O)c2C1 (stereo not drawn),"inconclusive [inhibitor, single point]"
13,CCCN(CCC)C[C@@H]1CCCCN1CCNC(=O)N1c2ccccc2C(=O)Nc2cccnc21,inactive
14,CCC(=O)N(C1=C(NC(C)C)C(=O)c2ccccc2C1=O)C(C)C,"inconclusive [inhibitor, partial curve, poor fit]"
15,CN1CCC(=C2c3ccccc3CC(=O)c3sccc32)CC1,"inconclusive [inhibitor, single point]"
16,COc1cc2c(cc1OC)-c1cc(OCc3ccccc3Cl)nc(=O)n1CC2,"inconclusive [inhibitor, single point]"
17,CC1=NN(c2ccccc2)C(=O)/C1=C\C=C1\N(C)c2ccccc2C1(C)C,active: 15.8 µM
18,O=C(NC(=Nc1nc2ccccc2o1)NC(=O)c1ccccc1)c1ccccc1,inactive
19,COc1ccc(/C=C/C(=O)N(C)C2CCCCC2)cc1Br,"inconclusive [inhibitor, single point]"
20,O=C(C1=C[C@H](c2ccc(Br)cc2)C[C@H](OCc2ccc(CO)cc2)O1)N1CCOCC1,"inconclusive [inhibitor, single point]"
21,Cc1cc2cc(C)c(NCCNC(=O)c3ccccc3)nc2cc1C,"inconclusive [inhibitor, single point]"
